Substitutions are numbered along the chain they refer to.
B1: VLX8hum_06 IgG2: humanized VLX8 anti-CD47 mAb, IgG2 (antibody)
heavy: QVQLVQSGAEVKKPGASVKVSCKASGYSFTNYYIHWVRQAPGQGLEWMGYIDPLNGDTTYNQKFKGRVTMTRDTSTSTVYMELSSLRSEDTAVYYCARGGKRAMDYWGQGTLVTVSSASTKGPSVFPLAPCSRSTSESTAALGCLVKDYFPEPVTVSWNSGALTSGVHTFPAVLQSSGLYSLSSVVTVPSSNFGTQTYTCNVDHKPSNTKVDKTVERKCCVECPPCPAPPVAGPSVFLFPPKPKDTLMISRTPEVTCVVVDVSHEDPEVQFNWYVDGVEVHNAKTKPREEQFNSTFRVVSVLTVVHQDWLNGKEYKCKVSNKGLPAPIEKTISKTKGQPREPQVYTLPPSREEMTKNQVSLTCLVKGFYPSDIAVEWESNGQPENNYKTTPPMLDSDGSFFLYSKLTVDKSRWQQGNVFSCSVMHEALHNHYTQKSLSLSPGK
light: DIQMTQSPSSLSASVGDRVTITCRASQSISNYLNWYQQKPGKAPKLLIYYTSRLYSGVPSRFSGSGSGTDFTLTISSLQPEDFATYYCQQGNTLPWTFGQGTKVEIKRTVAAPSVFIFPPSDEQLKSGTASVVCLLNNFYPREAKVQWKVDNALQSGNSQESVTEQDSKDSTYSLSSTLTLSKADYEKHKVYACEVTHQGLSSPVTKSFNRGEC
B2: VLX8hum_09 IgG2: humanized VLX8 anti-CD47 mAb, IgG2 (antibody)
heavy: B1 heavy with A16S, N61A, K65Q, M70I, R72A, T74E, V79A
light: B1 light
B3: VLX8hum_08 IgG2: humanized VLX8 anti-CD47 mAb, IgG2 (antibody)
heavy: EVQLVQSGAEVKKPGESLKISCKGSGYSFTNYYIHWVRQMPGKGLEWMGYIDPLNGDTTYNQKFKGQVTISADKSISTAYLQWSSLKASDTAMYYCARGGKRAMDYWGQGTLVTVSSASTKGPSVFPLAPCSRSTSESTAALGCLVKDYFPEPVTVSWNSGALTSGVHTFPAVLQSSGLYSLSSVVTVPSSNFGTQTYTCNVDHKPSNTKVDKTVERKCCVECPPCPAPPVAGPSVFLFPPKPKDTLMISRTPEVTCVVVDVSHEDPEVQFNWYVDGVEVHNAKTKPREEQFNSTFRVVSVLTVVHQDWLNGKEYKCKVSNKGLPAPIEKTISKTKGQPREPQVYTLPPSREEMTKNQVSLTCLVKGFYPSDIAVEWESNGQPENNYKTTPPMLDSDGSFFLYSKLTVDKSRWQQGNVFSCSVMHEALHNHYTQKSLSLSPGK
light: B1 light
B4: VLX8hum_07 IgG2: humanized VLX8 anti-CD47 mAb, IgG2 (antibody)
heavy: B1 heavy with A16S, M70I, R72A, T74E, V79A
light: B1 light

System: hRBCs
Assay: Hemagglutination of washed human red blood cells
Format: cell-based
Details: humanized mAbs, Table 2
Protocol: Hemagglutination of hRBCs was assessed following incubation of hRBCs with various concentrations of chimeric and humanized VLX4, VLX8, and VLX9 mAbs in vitro essentially as described by Kikuchi et al. Biochem Biophys Res. Commun (2004) 315:912-918. Blood was obtained from healthy donors, diluted (1:50) in PBS/1 mM EDTA/BSA and washed 3 times with PBS/EDTA/BSA. hRBCs were added to U-bottomed 96 well plates with equal volumes of the antibodies (75 μl of each) and incubated for 3 hrs at 37° C. and overnight at 4° C.

| Molecule | HA hRBC |
| --- | --- |
| B1 | Yes |
| B2 | Yes |
| B3 | Yes |
| B4 | Yes |

Target: T1, human CD47 on hRBCs (Homo sapiens, UniProt Q08722)
T1 construct: freshly isolated human red blood cells (hRBCs), which display CD47 on their surface; from tissue; host or cells: human blood, washed red blood cells
Assay: Binding to freshly isolated human red blood cells, flow cytometry
Details: result in words
Protocol: The binding of chimeric (murine-human) and humanized antibodies of the present disclosure was determined by ELISA using OV10 cells transfected with human CD47 (OV10 hCD47) or using freshly isolated human red blood cells (hRBCs), which display CD47 on their surface (Kamel et al. (2010) Blood. Transfus. 8(4):260-266).
Binding activities of chimeric and humanized VLX4, VLX8, and VLX9 mAbs to human CD47 on hRBCs were also determined using flow cytometry.

| Molecule | binding to human RBCs compared with OV10 hCD47 tumor cells |
| --- | --- |
| B1 | Kd values similar to the values obtained for OV10 hCD47 tumor cells |
| B2 | Kd values similar to the values obtained for OV10 hCD47 tumor cells |
| B3 | Kd values similar to the values obtained for OV10 hCD47 tumor cells |
| B4 | Kd values similar to the values obtained for OV10 hCD47 tumor cells |

Source: US20220313819A1, “COMBINATION THERAPY FOR THE TREATMENT OF SOLID AND HEMATOLOGICAL CANCERS” (Arch Oncology, Inc., priority 2019, published 2022)
